The record followed here is the supplement of paper PMC5998384.

The test system of data set [1] is HeLa Kyoto. Kind of data set: thermal stability score vs G1/S (z-score of summed log2 fold changes over temperatures); higher = more thermally stable than in G1/S.
Data set [2] relates to HeLa Kyoto. Kind of data set: solubility change mitosis vs G1/S (difference of NP-40 vs SDS log2 ratios) (log2 ratio difference); higher = more soluble in mitosis.
Data set [3] has as its system HeLa Kyoto. As to the kind of experiment: solubility in G1/S (NP-40 vs SDS abundance) (log2 ratio); higher = more soluble. The settings on record: cell cycle stage: G1/S.
In data set [4] the test system is HeLa Kyoto. As to the kind of experiment: melting temperature (median over replicates), in situ; higher = more thermally stable.
Setting [5] is: cell cycle stage: early G1 (4.5 h after nocodazole release).
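For melting temperature (median over replicates), in situ in this document: HeLa Kyoto cells synchronized by double thymidine or nocodazole block, proteins quantified by TMT10plex mass spectrometry, three independent biological replicates.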
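For solubility change mitosis vs G1/S (difference of NP-40 vs SDS log2 ratios) in this document: synchronized HeLa Kyoto cells (double thymidine block for G1/S, nocodazole release for mitosis), protein amounts in NP-40 versus SDS lysates quantified by mass spectrometry, three biological replicates.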
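For solubility in G1/S (NP-40 vs SDS abundance) in this document: HeLa Kyoto cells arrested at G1/S by double thymidine block, proteins quantified by TMT10plex mass spectrometry in mild NP-40 versus SDS extracts, three biological replicates.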
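For thermal stability score vs G1/S (z-score of summed log2 fold changes over temperatures) in this document: synchronized HeLa Kyoto cells, proteins quantified by TMT10plex mass spectrometry, three biological replicates, mitosis taken 0.5 h after nocodazole release, G1/S directly after double thymidine block.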

On to APC, for which the thermal stability score with HeLa Kyoto [1] (setting [5]) was -0.0369; with HeLa Kyoto [1] (cell cycle stage: mitosis) it was 0.455. Further, the “solubility change mitosis (log2)” value in the data set on HeLa Kyoto [2] is -0.0555. In the data set with HeLa Kyoto [3], the “solubility in G1/S (log2)” value was -0.0417. The melting temperature amounted to 51.5 °C in the data set on HeLa Kyoto [4] (cell cycle stage: G1/S) and 52.7 °C with HeLa Kyoto [4] (cell cycle stage: mitosis).
As to CCT5 (sequence left out), the thermal stability score is 0.0012 with HeLa Kyoto [1] (setting [5]) and -1.08 in the data set on HeLa Kyoto [1] (cell cycle stage: mitosis). For the same substance, the “solubility change mitosis (log2)” value with HeLa Kyoto [2] is -0.115. The “solubility in G1/S (log2)” value in the data set with HeLa Kyoto [3] turned out to be 0.334. The melting temperature in the data set with HeLa Kyoto [4] (cell cycle stage: G1/S) stood at 54.2 °C; with HeLa Kyoto [4] (cell cycle stage: mitosis) it was 53.8 °C.
In the case of EIF2AK1 (sequence left out), the thermal stability score in the data set on HeLa Kyoto [1] (setting [5]) was -0.109; in the data set with HeLa Kyoto [1] (cell cycle stage: mitosis), -0.576. For the same substance, the “solubility change mitosis (log2)” value with HeLa Kyoto [2] stood at 0.028. Also, the “solubility in G1/S (log2)” value with HeLa Kyoto [3] is -0.289.
EIF2S2 (sequence left out): the thermal stability score in the data set with HeLa Kyoto [1] (setting [5]) was -0.0526; with HeLa Kyoto [1] (cell cycle stage: mitosis) it was -2.09. In the data set with HeLa Kyoto [2], the “solubility change mitosis (log2)” value was 0.0541. Further, the “solubility in G1/S (log2)” value with HeLa Kyoto [3] was found to be 0.0663. The values for the melting temperature in the data set with HeLa Kyoto [4] (cell cycle stage: G1/S) and with HeLa Kyoto [4] (cell cycle stage: mitosis) were 54.1 °C and 54 °C, respectively.
As to EIF3A (sequence left out), the thermal stability score with HeLa Kyoto [1] (setting [5]) was -0.561; with HeLa Kyoto [1] (cell cycle stage: mitosis), 1.01. Besides, the “solubility change mitosis (log2)” value in the data set on HeLa Kyoto [2] is -0.0239. Besides, the “solubility in G1/S (log2)” value in the data set with HeLa Kyoto [3] is -0.482. Moreover, the melting temperature stood at 49.3 °C in the data set with HeLa Kyoto [4] (cell cycle stage: G1/S) and 49.2 °C in the data set with HeLa Kyoto [4] (cell cycle stage: mitosis).
Turning to EXOC5 (sequence left out), the results for the thermal stability score in the data set on HeLa Kyoto [1] (setting [5]) and with HeLa Kyoto [1] (cell cycle stage: mitosis) were 0.476 and 0.71, respectively. The “solubility change mitosis (log2)” value in the data set with HeLa Kyoto [2] is -0.111. In the data set on HeLa Kyoto [3], the “solubility in G1/S (log2)” value came out at 0.0694. For the same substance, the melting temperature was 49.7 °C with HeLa Kyoto [4] (cell cycle stage: G1/S) and 48.4 °C with HeLa Kyoto [4] (cell cycle stage: mitosis).
As for INO80 (sequence left out), the “solubility change mitosis (log2)” value in the data set on HeLa Kyoto [2] was -0.00769. In addition, the “solubility in G1/S (log2)” value in the data set with HeLa Kyoto [3] was -0.336.
On to MAX (sequence left out), for which the “solubility change mitosis (log2)” value with HeLa Kyoto [2] came out at 0.0834. In addition, the “solubility in G1/S (log2)” value in the data set with HeLa Kyoto [3] is 0.0325. Also, the melting temperature with HeLa Kyoto [4] (cell cycle stage: G1/S) stood at 53.4 °C; with HeLa Kyoto [4] (cell cycle stage: mitosis), 52 °C.
Turning to PLD2 (sequence left out), in the data set with HeLa Kyoto [2], the “solubility change mitosis (log2)” value came to 0.022. Further, the “solubility in G1/S (log2)” value in the data set with HeLa Kyoto [3] was -0.332.
TGFB1 (sequence left out): the “solubility change mitosis (log2)” value in the data set with HeLa Kyoto [2] was -0.273. The “solubility in G1/S (log2)” value in the data set with HeLa Kyoto [3] is 0.341.
The like results for “[skipping about 250 residues]ETPLLGSSLVQNSILVDSVTGVPTNPSFQKPSTSAFPAPVPLNSGNISVQDSHTSDNLSMLATGMPSTSYGLSSHQEWPQHQDSARTEQLYSQKQETSLSGSQYNINFQQGPSISLHSGLHHRPDKISDHSSVKQEYTHKAGSSKHHGPISTTPGIIPQKMSLDKYREKRKLETLDLDVRDHYIAAQVEQQHKQGQSQAASSSSVTSPIKMKIPIANTEKYMADKKEKSGSLKLRIPIPPTDKSASKEELKMKIKVSSSERHSSSDEGSGKSKHSSPHISRDHKEKHKEHPSSRHHTSSHKHSHSHSGSSSGGSKHSADGIPPTVLRSPVGLSSDGISSSSSSSRKRLHVNDASHNHHSKMSKSSKSSGSSSSSSSSVKQYISSHNSVFNHPLPPPPPVTYQVGYGHLSTLVKLDKKPVETNGPDANHEYSTSSQHMDYKDTFDMLDSLLSAQGMNM [CCNT2]” were, in that order, 0.238 and -0.34.
The like results for “[skipping about 500 residues]DNAFHLGPLRVTTTNTVASTPPTPTCEDAASRQQRLSALRRYQDKRLLALSNESDSEENVCEVELDTDLFPRPRSPSPEDESSSSSSSSSSEDEEELNERRASTWQRNAMRRRQKTTREDKPSAPIKPTNTYIGEDNYDYPQIKVDDLSSSPTSSPERSTSTLEIQPSRASPTSDIESVERKIYKAYKWLRYSYISYSNNKDGETSLVTGEADEGRAGTSHKDNPAPSSSKEACLNIAMAQRNQDLPPEGCSKDTFKEETPRTPSNGPGHEHSSHAWAEVPEGTSQDTGNSGSVEHPFETKKLNGKALSSRAEEPPSPPVPKASGSTLNSGSGNCPRTQSDDSEERSLETICANHNNGRLHPRPPHPHNNGQNLGELEVVAYSSPGHSDTDRDNSSLTGTLLHKDCCGSEMACETPNAGTREDPTDTPATDSSRAVHGHSGLKRQRIELEDTDSENSSSEKKLKT [DCAF5]” were, in that order, -0.193 and 0.0872.
